# Test results published in the BET-seq Pho4 binding data (Le et al. 2018).
# This is one part of the list. The energies were worked out here from pooled read counts, against the library average; single values are noisy.
# Molecular target: T1, Pho4 (S. cerevisiae) (UniProt P07270)
# T1 sequence: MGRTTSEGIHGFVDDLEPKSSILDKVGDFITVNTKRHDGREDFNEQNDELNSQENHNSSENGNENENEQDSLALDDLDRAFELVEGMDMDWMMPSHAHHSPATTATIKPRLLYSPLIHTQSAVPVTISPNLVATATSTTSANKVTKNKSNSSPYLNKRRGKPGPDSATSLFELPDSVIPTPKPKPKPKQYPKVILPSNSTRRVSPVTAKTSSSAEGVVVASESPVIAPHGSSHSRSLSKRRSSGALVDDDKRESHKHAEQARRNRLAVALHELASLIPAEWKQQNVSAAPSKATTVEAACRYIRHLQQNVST
# Assay: relative binding free energy (BET-seq); higher = weaker binding
# Conditions: reference: library average
row,Sequence,relative binding free energy [kcal/mol]
1,TTAGCCACGTGGTCGG,-0.18
2,ATTTGCACGTGCTTTG,0.05
3,TGGCGCACGTGGGTAG,-0.26
4,TTGGGCACGTGTTTTC,0.02
5,AGGGTCACGTGTACGA,0.05
6,TAGATCACGTGGGCTA,0.01
7,TGGCACACGTGTATAG,0.21
8,TGTTTCACGTGCTTTG,0.22
9,TTGGGCACGTGATGGT,-0.04
10,TGAGACACGTGTTTAG,0.01
11,GTTTGCACGTGCGGTC,0.04
12,TTGATCACGTGGGTCA,-0.03
13,TCACGCACGTGTGGGG,-0.2
14,GATTTCACGTGTGGTT,0.34
15,TTAGTCACGTGAGTAA,0.14
16,CGTGGCACGTGTTATC,0.09
17,TTGGACACGTGTGACG,0.1
18,TGAGGCACGTGTCAGG,-0.16
19,GGGTTCACGTGTCAGT,0.36
20,TATGACACGTGGTGTG,-0.03
21,GTATGCACGTGGTTAG,-0.14
22,AGTCGCACGTGTGCGT,-0.03
23,AACTGCACGTGGTAGG,-0.03

row,Sequence,relative binding free energy [kcal/mol]
1,GGAAACACGTGGTTAG,0.03
2,AAAGGCACGTGTAGCT,-0.06
3,GGATTCACGTGGAAGA,0.51
4,GAATGCACGTGGTATA,-0.01
5,GTATTCACGTGAGGGG,0.35
6,TGGGTCACGTGGAACG,0.18
7,GGGGGCACGTGGAGGG,-0.13
8,TGCATCACGTGCGGTT,0.16
9,TTGTTCACGTGTACTT,0.24
10,AGTCGCACGTGTTGTT,-0.03
11,GGCGTCACGTGCGGTG,0.05
12,TGATTCACGTGATGCG,0.35
13,TGAGACACGTGGTAGT,-0.13
14,GGGTGCACGTGGTGGC,0.08
15,GTGGTCACGTGAAATG,0.43
16,CATTTCACGTGGTGGT,0.21
17,GGGTGCACGTGAGATA,0.23
18,TATATCACGTGGCTGG,0.03
19,TACTTCACGTGATTGG,0.24
20,TCAGACACGTGGGGCG,-0.02
21,TTCAGCACGTGCGGTG,-0.07
22,TCGGTCACGTGCTGGA,0
23,TGGCGCACGTGGGTTC,-0.31

row,Sequence,relative binding free energy [kcal/mol]
1,TTTTTCACGTGGAAGA,0.32
2,GAATTCACGTGCGGTG,0.13
3,ATCTACACGTGGGGTG,-0.18
4,TGGGACACGTGTTAGG,0.03
5,TTTGGCACGTGTCGTC,-0.03
6,ATTCGCACGTGGATGG,0.04
7,AGATTCACGTGGTCGG,0.15
8,GATGCCACGTGAAGGT,0.29
9,TTAGGCACGTGGTGAC,-0.17
10,CGGGTCACGTGGACGT,0.12
11,CTTGGCACGTGCGGCG,-0.22
12,GTATTCACGTGGCAGT,0.27
13,GGTGGCACGTGTACGT,0.08
14,TTATTCACGTGTAGTT,0.29
15,ACTGGCACGTGTAGGT,-0.02
16,GAGTACACGTGAGGGG,0.27
17,GTGCGCACGTGAATTG,0.14
18,GCCTACACGTGGGGGG,-0.07
19,TGGGACACGTGTGTAC,0.18
20,CGGTGCACGTGTTGGT,0
21,GGTGCCACGTGAGAGT,0.2
22,AATGGCACGTGTTAGT,-0.07
23,AGGTACACGTGCGTGT,-0.03

row,Sequence,relative binding free energy [kcal/mol]
1,AAAGTCACGTGCAGGG,0.04
2,GAATTCACGTGTGCGT,0.3
3,TAGTTCACGTGTGTAT,0.27
4,GCTGTCACGTGTTTAT,0.19
5,GCTGTCACGTGGGGTA,0
6,TTTCACACGTGGAGAA,0.2
7,TATTTCACGTGAGACG,0.42
8,AAGCTCACGTGTGTTG,0.23
9,AGGGACACGTGTTCGA,0.01
10,AGTTTCACGTGGTAAT,0.29
11,GCGTTCACGTGATGGG,0.4
12,TGTCGCACGTGTTAAG,-0.01
13,AATTTCACGTGGGAAT,0.28
14,GACGGCACGTGGGGTT,-0.12
15,TGGTACACGTGGATAT,0.08
16,GAGTACACGTGTGGAG,0.34
17,GGCGTCACGTGGTTGC,0.02
18,AGAGTCACGTGTGGGA,0.18
19,TGGTGCACGTGTACGC,-0.04
20,TTTGCCACGTGTGGGT,0.15
21,TTAGGCACGTGGGTCT,-0.34
22,GTGGGCACGTGCGTAA,-0.12
23,TGATACACGTGTTATG,0.06

row,Sequence,relative binding free energy [kcal/mol]
1,ATGGACACGTGTTGGA,0.18
2,TTTCTCACGTGATGAT,0.2
3,AAAATCACGTGTGAGT,0.35
4,CGTGGCACGTGGATTT,-0.12
5,CTAGTCACGTGTTAGG,0.08
6,GGTAGCACGTGAGGCC,0.31
7,ATGCTCACGTGATTTT,0.27
8,TGTCTCACGTGTTTAG,0.16
9,GAGTTCACGTGGGTTA,0.37
10,ATTTTCACGTGATATA,0.32
11,TGTTACACGTGCAGGC,0.2
12,AGCTTCACGTGTGGAT,0.24
13,GGTGACACGTGCGTAA,0.04
14,TTGTTCACGTGGGGCG,0.18
15,TTTGGCACGTGGTAAG,-0.11
16,AGGTTCACGTGGGCCG,0.16
17,AAGATCACGTGTATGG,0.09
18,AATGGCACGTGCGGTT,-0.18
19,AGCTTCACGTGATGCT,0.37
20,TTTATCACGTGAGTCA,0.2
21,GGCCGCACGTGGTGGA,-0.16
22,TGGGGCACGTGTCTCT,-0.1
23,CGCTGCACGTGGGTTG,-0.24
